# Measurements as given in publication PMC12136788.
# This is one part of the list.
# T1: UNK ZnF1-3 (human, UniProt Q9C0B0 31-174)
# T1 sequence: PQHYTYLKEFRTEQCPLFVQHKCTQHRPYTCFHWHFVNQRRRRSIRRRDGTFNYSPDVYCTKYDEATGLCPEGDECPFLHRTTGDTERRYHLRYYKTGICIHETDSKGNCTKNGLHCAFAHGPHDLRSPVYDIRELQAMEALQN
# B1: chr4:17845017:17845018:+_ENSG00000109805_ENST00000514176|hu_mus|hu_hu_hu_mus_False|18_18 (ssRNA)
# RNA: GGGAGUUCUACAGUCCGACGAUCGCUCUCUUAACUUGUAUCUUCAUUAAGGAACUCUGCAAGGUUAAGUUUACUUUUCUGUAGCGCAGCUGUUUUGGCUCGUCUGGGUAAUCUCAUUUCAUUUCUGGAUGGUGGUUCAUGAUCCAACAGAGGAUUGAGCAUCA
# B2: chr1:202702741:202702742:-_ENSG00000117139_ENST00000367264|hu_mus|FALSE|FALSE (ssRNA)
# RNA: GGGAGUUCUACAGUCCGACGAUCUUCAGGAAGACGAACUCGUAUACGCUGUAGGGAGGCCAGCAGAGGCAGAAUUUUCUCUAAUGGAGGCUUCUCUGACCUCCGACAGUGAGGACAAAGCCAGAUUCGGGAGCUUUGUGAAAUCAACAGAGGAUUGAGCAUCA
# B3: chr9:26842284:26842285:-_ENSG00000120159_ENST00000333916|hu_mus|motif|central (ssRNA)
# RNA: GGGAGUUCUACAGUCCGACGAUCAUACAAAAUUAUAUGACAUGGCUUCAUUCAAACACACAUAAUAUUCAAGUCAGAAAACGGCACUGGCUUUUUUAUAUCACCAGCUUUCAUGAGAGCCUUAAUUGCUCUUGCCCUCAUUUCCAACAGAGGAUUGAGCAUCA
# B4: chr2:20138125:20138126:-_ENSG00000118965_ENST00000281405|hu_mus|FALSE|FALSE (ssRNA)
# RNA: GGGAGUUCUACAGUCCGACGAUCUUCAAUUCCAACUUUCUCAAUCAAUGCUCGGCUGUCUCGCAGGGACCGGAUCUCAAAGUUCAUUAUGUAAUCCUUGCUAGGGUGCUCUGGGUCCUUCAGUAUCUCAUCCAAGAGAACAGACAACAGAGGAUUGAGCAUCA
# B5: 114969895_114970468_1347_CDS_ENSG00000197323_ENST00000358465|human|control|control (ssRNA)
# RNA: GGGAGUUCUACAGUCCGACGAUCAUGACGCAACUGGAAAGUAAUCAGUCGCUUGCUGUAUAGUAGUGCUGUGCUGCUGCCACUUGCAAUUGCCCAAUUUGUGAAGUUCAUAACAUGCUUCACCUGCCGGGAAAGGCCUGUGAUCAACAGAGGAUUGAGCAUCA
# B6: chr1:58468927:58468928:-_ENSMUSG00000026034_ENSMUST00000148330|mus_mus|mus_mus_mus_hu_False|28_58 (ssRNA)
# RNA: GGGAGUUCUACAGUCCGACGAUCAAUUACUGAAAAAGAUGUUCAUUACCUUAGCUAUGUACUUAAUGAACCAAAUUAUCUAAAAAAAAUAAACAUGGCAAUAUAAAAAGCUAUACAAUUUACAAAGCUGUACAAAAUAACUUACAACAGAGGAUUGAGCAUCA
# B7: chr13:98020659:98020660:+_ENSMUSG00000041773_ENSMUST00000041623|mus_hu|FALSE|FALSE (ssRNA)
# RNA: GGGAGUUCUACAGUCCGACGAUCACAAUUACAAGACAAGGACUAGAUCACAGGUUUGUUCAUUCAUAUUUAAACCAUGUGCUACUUGCACCAAAAAUCCCACCCCCCUCCCUCGCCCCUUUCCUUCAUGUCCAGUUAGAGCAUCAACAGAGGAUUGAGCAUCA
# B8: chr5:31552970:31552971:+_ENSG00000082213_ENST00000325366|hu_mus|motif|central (ssRNA)
# RNA: GGGAGUUCUACAGUCCGACGAUCCUGGAAGCCCAGAAACAAAAGCCGGGUCUGUCACUGCGCCAAACUGCACAGCAGCCGGGCACGGUCUCAGCUCAGAGGGGACUCUUCUGAGUACACCAGGUGAGUGUCCAGGGUCCCGUACAACAGAGGAUUGAGCAUCA
# B9: chr7:128503047:128503048:+_ENSG00000128524_ENST00000249289|hu_hu|motif|central (ssRNA)
# RNA: GGGAGUUCUACAGUCCGACGAUCGGUUGUAUCCUUCUCCACCACCAGGAAAUUGGGAUGGCGGUUCUUGUUAAGCUCCCCGGUGCCGCCCAGCAGGAAACCAGUCACCGUGUCCUCGUCUCCGAUCACUGCGAUGAGCUUACCCAACAGAGGAUUGAGCAUCA
# B10: chr5:128440902:128440903:+_ENSG00000066583_ENST00000173527|hu_mus|hu_hu_hu_mus_True|68_78 (ssRNA)
# RNA: GGGAGUUCUACAGUCCGACGAUCUUGAACGGUGCUGCCAAGUCCUUUGGGGUAUUGUUCUGUUACAAUAACAGGAAUCCCUAAGAUCCGAGCUCCUUGCAACAGUCUCUGUCCCACACUAAUGAUGUCCCCAAAGUAUUUGAUCAACAGAGGAUUGAGCAUCA
# B11: chrX:148438211:148438212:+_ENSMUSG00000025260_ENSMUST00000026289|mus_mus|motif|central (ssRNA)
# RNA: GGGAGUUCUACAGUCCGACGAUCGUCUGGUUCAUUCUGGCCCAUCUCCCCAGCAACCAGGCGGAUCACAUUGAAAGUGCCGGUAAGAUUCACAUUGAUAACCCGCUGGAAGUCCUCCAAAGUAUGGAUCUUGUUCUUCUUUUGCAACAGAGGAUUGAGCAUCA
# B12: chr1:58468927:58468928:-_ENSMUSG00000026034_ENSMUST00000148330|mus_mus|motif|central (ssRNA)
# RNA: GGGAGUUCUACAGUCCGACGAUCAUUCUAUAAUUACUGAAAGAUGUUAUUUGGUUUGGCCAUGUAUUUAAUAAAGCAUCGGAAAAACAUAAAAUGUUUUACAAAUUAAGCUAUACAAAAUAACUUAAUUAAAAGCUAGACUGACAACAGAGGAUUGAGCAUCA
# B13: chr3:41281661:41281662:+_ENSG00000168036_ENST00000349496|hu_mus|motif|central (ssRNA)
# RNA: GGGAGUUCUACAGUCCGACGAUCACCUGCUUAUUUUAAGCAUAUUAAAAAGGAAACUAAUCGGACCAUUUCUAUCUGUCGGUUUAUACAAAAGGCUACACAAUGUUACACGUCUCCAGAUUACAAUUAGCGUGAUUAUGAAUUCAACAGAGGAUUGAGCAUCA
# B14: chr2:27436100:27436101:+_ENSG00000138085_ENST00000606999|hu_hu|FALSE|FALSE (ssRNA)
# RNA: GGGAGUUCUACAGUCCGACGAUCGGUGCCCUUCUGAUUCAGGCAGCAACGGGCAUGCAGCAUUAGCUCUCGUGUCGUUUUACAAUAAAAGGCCACUUUUGACAAAUUUUGCACGCUCCCUGGACAUUGGGUGCAUAUCUCGGGCAACAGAGGAUUGAGCAUCA
# B15: chr4:144460044:144460045:+_ENSG00000153147_ENST00000283131|hu_mus|hu_hu_hu_mus_False|1_58 (ssRNA)
# RNA: GGGAGUUCUACAGUCCGACGAUCACGGUCCAUAGCCUGAAGAUCAACUUGCGGAUUCCAAUCUGAGUCAUAUAAAAUUACUACAUCAGCAGUUGCAAGAUUGAUGCCCAGACCACCAGCACGUGUGCUUAGCAUAAAAACAAACAACAGAGGAUUGAGCAUCA
# B16: chr1:29070155:29070156:+_ENSG00000198492_ENST00000541996|hu_hu|FALSE|FALSE (ssRNA)
# RNA: GGGAGUUCUACAGUCCGACGAUCCACAGCAGAUUUCAUUUCUGCCACGCCACAGAAGUGUCCACUGCCGUUGACACUGAAAAGUAAGUAAACGGGGCCUUUCCCGUUCAUGGAACGAUAAGCAGCAUCCAGUCUCUUGUUACCCAACAGAGGAUUGAGCAUCA
# B17: chr8:117878989:117878990:-_ENSG00000164754_ENST00000297338|hu_hu|hu_hu_hu_mus_True|18_58 (ssRNA)
# RNA: GGGAGUUCUACAGUCCGACGAUCCCAGAGGCCCUCGUUUACUGAGGACAAAAUGUGCGUAGAACAUUUUUCUUAUUGGCUAUGAAAUAAGAAGAAACCUGGAUCUCGGCGGGGAGCUUGGGCGGGCGGGUGGCCCGGGGAGGGCAACAGAGGAUUGAGCAUCA
# B18: chr11:23187360:23187361:+_ENSMUSG00000020290_ENSMUST00000020538|mus_mus|motif|central (ssRNA)
# RNA: GGGAGUUCUACAGUCCGACGAUCGCUCACCCAACCAGAUAUUAACUUUAAAGUUUCCCUUUUUACUGUCCGCAUACUUCGGAUCAAUGGUUGCUUUGUAACCAUCUCACCAUUAGCUUGAAUAGCUGCAGAAAUAUUUUCACUCAACAGAGGAUUGAGCAUCA
# B19: chr11:106643937:106643938:-_ENSMUSG00000020719_ENSMUST00000021062|mus_mus|FALSE|FALSE (ssRNA)
# RNA: GGGAGUUCUACAGUCCGACGAUCAGGUGUAAAGAAAGUGUAUGCUGUGCCUGUUUUGGUACUGCGAGCAGUUCUUCCAAUUCGAUGAAUAUAAUCCUCUGAGGAGUUAGGGUAGUCAUAAUUGAUGACAAAUUUCACAUCUUCCAACAGAGGAUUGAGCAUCA
# B20: chr14:31888013:31888014:+_ENSMUSG00000042323_ENSMUST00000112095|mus_mus|FALSE|FALSE (ssRNA)
# RNA: GGGAGUUCUACAGUCCGACGAUCGCUGAGUGCUGGAGAAAGAAGGAUCUCUCCAUUUUUGCAGAGUUCAUCACGAAUUCUAAUAAAAAACUGCUGAAGUUCUACAGCAUCCUCAUAUAUUUCGGAAUCUGUCCGGUUCAUCCUCAACAGAGGAUUGAGCAUCA
# B21: chr11:87793471:87793472:-_ENSMUSG00000020483_ENSMUST00000020775|mus_mus|mus_mus_mus_hu_False|18_38 (ssRNA)
# RNA: GGGAGUUCUACAGUCCGACGAUCUGGACUUGAAAAUAAAAGAAUAAGCUGGAUCCCCCACCCCCCCACAUUGUCAACCCUACACGAGAGUUUUGAAUGAUUCAUAAGAAAAUCAGCCUCAAUUGGCGCAAUGACCACCCCACCCAACAGAGGAUUGAGCAUCA
# B22: chr1:94914635:94914636:-_ENSMUSG00000014602_ENSMUST00000171796|mus_hu|FALSE|FALSE (ssRNA)
# RNA: GGGAGUUCUACAGUCCGACGAUCAACAGGGUGGAGGUGGUUGGGGGUUCCAUCUGAAUAUUACAGGGCUAUGUGGAGGCAUUAGAAAUAAAUACUUAUAAAUAGAACAAGUCUUAUAGUUAAUUUCCGAGUUGACUGUUUCAACAACAGAGGAUUGAGCAUCA
# Target: T1, UNK ZnF1-3
# Test: nsRBNS (natural sequence RNA bind-n-seq); RBNS binding buffer (assumed for nsRBNS): 25 mM Tris pH 7.5, 150 mM KCl, 3 mM MgCl2, 0.01% Triton X-100, 500 ug/ml BSA, 20 U/ml SUPERase-In, 4 C; UNK is unkempt and MSI1 is Musashi-1; names of the RNAs are library labels; protein concentration not given here; high values mean tight binding
row,Binder,binding signal [enrichment R]
1,B1,0.47
2,B2,1.11
3,B3,0.849
4,B4,0.695
5,B5,0.894
6,B6,1.26
7,B7,1.65
8,B8,0.842
9,B9,0.872
10,B10,0.613
11,B11,0.721
12,B12,1.28
13,B13,0.824
14,B14,0.687
15,B15,1.37
16,B16,0.7
17,B17,1.09
18,B18,0.651
19,B19,2.51
20,B20,1.3
21,B21,1.92
22,B22,1.86
